Assay results: ChEMBL document CHEMBL5606460, “ASAP - DENV-2 NS2B-NS3 protease fluorescence single point” (2024)
Screen size: about 2,000 compounds; about 110 (5.5%) showed an effect of 50% or more. This is one part of the list.

Target: Genome polyprotein (dengue virus type 2) (UniProt P29990)
[1] = Thailand/16681/1984, Concentration 25.0 uM, Number of replicates 1.0

CCN(C(=O)C1CCN(c2ccc(C=O)cc2)CC1)C1C2CC3CC(C2)CC1C3 (centres undefined)
inhibition [1]: 14.3%

Cc1cc(I)ccc1NC(=O)C1CCN(c2ccc(C=O)cc2)CC1
inhibition [1]: 2.76%

Cn1cncc1CN1CCC(c2c[nH]c3cccnc23)CC1
inhibition (Thailand/16681/1984, Concentration 49.5 uM, Number of replicates 2.0, Standard deviation 0.15351466949171616 %): -5.61% | inhibition (Thailand/16681/1984, Concentration 99.01 uM, Number of replicates 2.0, Standard deviation 0.4102628182016519 %): -5.32% | inhibition (Thailand/16681/1984, Concentration 198.0 uM, Number of replicates 2.0, Standard deviation 0.591810536749722 %): -5.54%

CC(C)(C)N(Cc1ccc(Br)cc1)C(=O)C1CCN(c2ccc(C=O)cc2)CC1
inhibition [1]: 16.6%

O=Cc1ccc(N2CCC(C(=O)Nc3ccc(I)cc3F)CC2)cc1
inhibition [1]: 10.5%

Cc1cc(CO)c2cccc(C[C@H](NC(=O)c3nc(C4CCNCC4)oc3C)C(=O)O)c2n1
inhibition (Thailand/16681/1984, Concentration 49.95 uM, Number of replicates 2.0, Standard deviation 0.8080216779744858 %): 2.79% | inhibition (Thailand/16681/1984, Concentration 99.9 uM, Number of replicates 2.0, Standard deviation 0.4573836691864076 %): 10%

Cc1cnccc1NC(=O)c1ccc(Cn2cccn2)o1
inhibition (Thailand/16681/1984, Concentration 49.5 uM, Number of replicates 2.0, Standard deviation 4.385944523915964 %): -2.69% | inhibition (Thailand/16681/1984, Concentration 99.01 uM, Number of replicates 2.0, Standard deviation 4.977047473031105 %): -3.61% | inhibition (Thailand/16681/1984, Concentration 198.0 uM, Number of replicates 2.0, Standard deviation 5.602921119089111 %): -2.76%

c1ccc2c(CN3CCC(c4cnco4)CC3)c[nH]c2c1
inhibition (Thailand/16681/1984, Concentration 49.5 uM, Number of replicates 2.0, Standard deviation 0.40536805180299074 %): -4.68% | inhibition (Thailand/16681/1984, Concentration 99.01 uM, Number of replicates 2.0, Standard deviation 1.6192470221979818 %): -4.3% | inhibition (Thailand/16681/1984, Concentration 198.0 uM, Number of replicates 2.0, Standard deviation 0.5019264817414489 %): -3.3%

O=Cc1ccc(N2CCC(C(=O)N3CCc4ccc([N+](=O)[O-])cc4C3)CC2)cc1
inhibition [1]: 16.6%

Cc1cc(CO)c2cccc(Cc3ccccc3NC(=O)c3nc(-c4ccccc4)oc3C(F)(F)F)c2n1
inhibition (Thailand/16681/1984, Concentration 49.95 uM, Number of replicates 2.0, Standard deviation 1.7717479756893137 %): 4.23% | inhibition (Thailand/16681/1984, Concentration 99.9 uM, Number of replicates 2.0, Standard deviation 1.406874278760802 %): 8.66%

CNC(=O)c1ccc2n1CCN(S(=O)(=O)c1cnn(CC3CC3)c1)[C@@H]2C
inhibition (Thailand/16681/1984, Concentration 49.5 uM, Number of replicates 2.0, Standard deviation 0.5811994670445131 %): -0.194% | inhibition (Thailand/16681/1984, Concentration 99.01 uM, Number of replicates 2.0, Standard deviation 0.831933566036596 %): -0.495% | inhibition (Thailand/16681/1984, Concentration 198.0 uM, Number of replicates 2.0, Standard deviation 1.0454246971724366 %): -1.2%

O=Cc1ccc(N2CCC(C(=O)N3CCN(C(=O)[C@H]4COc5ccccc5O4)CC3)CC2)cc1
inhibition [1]: 13%

COc1ccc(NC(C)=O)cc1NC(=O)C1CCN(c2ccc(C=O)cc2)CC1
inhibition [1]: 14.3%

Cc1cc(CO)c2cccc(C[C@H](NC(=O)Cc3c[nH]c4ccccc34)C(=O)O)c2n1
inhibition (Thailand/16681/1984, Concentration 49.95 uM, Number of replicates 2.0, Standard deviation 0.094584440141602 %): 2.82% | inhibition (Thailand/16681/1984, Concentration 99.9 uM, Number of replicates 2.0, Standard deviation 1.2728368480777283 %): 10.9%

N#Cc1cccc(-c2nc3c(C(=O)NCc4ccccc4)cc(Cl)cc3[nH]2)c1
inhibition (Thailand/16681/1984, Concentration 99.5 uM, Number of replicates 2.0, Standard deviation 0.16663009439873022 %): -4.99% | inhibition (Thailand/16681/1984, Concentration 295.6 uM, Number of replicates 2.0, Standard deviation 26.28702583112172 %): 8.64%

CCCC[C@@H](NC(=O)OC(C)(C)C)C(=O)N[C@@H](C(=O)NCc1ccc(CN)cc1)c1ccc(OCc2ccccc2)cc1
inhibition (Thailand/16681/1984, Concentration 49.5 uM, Number of replicates 2.0, Standard deviation 1.8529777654117539 %): 94% | inhibition (Thailand/16681/1984, Concentration 99.01 uM, Number of replicates 2.0, Standard deviation 0.005880328304239935 %): 100% | inhibition (Thailand/16681/1984, Concentration 198.0 uM, Number of replicates 2.0, Standard deviation 0.014706215557209234 %): 99.9%

Cc1nn(CC(=O)N[C@H]2CCS(=O)(=O)C2)cc1C1CCNCC1
inhibition (Thailand/16681/1984, Concentration 49.5 uM, Number of replicates 2.0, Standard deviation 0.9549826811101519 %): -3.17% | inhibition (Thailand/16681/1984, Concentration 99.01 uM, Number of replicates 2.0, Standard deviation 1.2465770012319246 %): -2.73% | inhibition (Thailand/16681/1984, Concentration 198.0 uM, Number of replicates 2.0, Standard deviation 0.2948392902823235 %): -1.46%

CN(C)c1ccccc1CNC(=O)C1CCN(c2ccc(C=O)cc2)CC1
inhibition [1]: 13.8%

CCOc1ccc(N2CCN(C(=O)C3CCN(c4ccc(C=O)cc4)CC3)CC2)cc1
inhibition [1]: 12.1%

CCCCCC(=O)N[C@H](C(=O)NCc1ccc(NC(=N)N)cc1)c1ccc(OCc2ccccc2)cc1
inhibition (Thailand/16681/1984, Concentration 49.5 uM, Number of replicates 2.0, Standard deviation 0.35669280924008506 %): 0.374% | inhibition (Thailand/16681/1984, Concentration 99.01 uM, Number of replicates 2.0, Standard deviation 0.1951319007042223 %): 2.1% | inhibition (Thailand/16681/1984, Concentration 198.0 uM, Number of replicates 2.0, Standard deviation 2.320076788942105 %): 11.9%

CCN(Cc1ccc(C(F)(F)F)cc1)C(=O)C1CCN(c2ccc(C=O)cc2)CC1
inhibition [1]: 12.1%

O=Cc1ccc(N2CCC(C(=O)N3CCN(Cc4cc(F)ccc4F)CC3)CC2)cc1
inhibition [1]: 10.9%

c1ccc2c(CN3CCC(c4c[nH]c5cccnc45)CC3)c[nH]c2c1
inhibition (Thailand/16681/1984, Concentration 49.5 uM, Number of replicates 2.0, Standard deviation 0.05605868026736993 %): 2.08% | inhibition (Thailand/16681/1984, Concentration 99.01 uM, Number of replicates 2.0, Standard deviation 0.054425742768663854 %): 4.27% | inhibition (Thailand/16681/1984, Concentration 198.0 uM, Number of replicates 2.0, Standard deviation 0.20137561913632315 %): 9.4%

O=Cc1ccc(N2CCC(C(=O)Nc3ccc(F)cc3C(F)(F)F)CC2)cc1
inhibition [1]: 12.5%
